Test results taken from PubChem BioAssay AID463173 (ICCB-Longwood Screening Facility, Harvard Medical School, 2010).
Hit rate of the full screen: of about 52,000 compounds, about 4,300 (8.3%) were called active. Cut-off read from the data, not from the text of the source: active = survival mostly below about 52% (no sharp cut-off); inactive = mostly above about 56%. The list shows a part of the results.

Tested on: DeltatarO mutant
Assay: S. aureus survival, RN4220 and DeltatarO strains – OD600, teichoic acid synthesis inhibitors, primary screen (AID 463173)
Conditions: S. aureus RN4220 wild type/DeltatarO growth, OD600, 18 h, hits give low values, screened at 18.75 µg/mL (by protocol)

| Compound | survival |
| --- | --- |
| COc1cccc(NC(=O)c2oc3ccc(S(=O)(=O)N4CCOCC4)cc3c2C)c1 | inactive: 78% |
| O=C(c1cccc([N+](=O)[O-])c1)N1CCN(CCc2ccncc2)CC1 | inactive: 46% |
| CCOc1ccccc1NC(=O)c1nn(-c2ccc(OC)cc2)c(=O)c2c1c1ccccc1n2C | inactive: 90% |
| CC(C)(C)c1ccc(S(=O)(=O)N2CCC(c3ccncc3)CC2)cc1 | inactive: 109% |
| CCOc1ccc(NC(=O)Cn2c(=O)n(Cc3ccccc3)c(=O)c3c4c(sc32)CN(C(C)=O)CC4)cc1 | inactive: 80% |
| O=C(Nc1cccnc1)C1CC(c2ccccc2O)=NO1 (stereo unspecified) | inactive: 103% |
| Cc1ccc(NC(=O)CN2C(=O)COc3ccc(S(=O)(=O)N4CCOCC4)cc32)c(Cl)c1 | inactive: 91% |
| COc1cccc(-n2cc(C(=O)Nc3ccccc3C(N)=O)c3ccccc3c2=O)c1 | inactive: 67% |
| Cc1nc(SCCOc2ccc(Cl)cc2)[nH]c(=O)c1Cc1ccccc1 | inactive: 72% |
| O=C(O)c1csc2c1CCCC2 | inactive: 85% |
| Cc1ccccc1CNC(=O)Cn1cc2c(n1)-c1c(oc(C(=O)N3CCCC3)c1C)CC2 | inactive: 107% |
| COc1ccccc1NC(=O)C1=C(C)Nc2ncnn2C1c1sccc1C (stereo unspecified) | inactive: 94% |
| COc1ccc(N2CC(NC(=O)C3CCCC3)CC2=O)cc1 (stereo unspecified) | inactive: 83% |
| COc1ccc(OC)c(CNC(=O)CCC(=O)N2Cc3ccccc3Oc3ncccc32)c1 | inactive: 112% |
| COc1ccc2nc(NC(=O)c3nc(SCc4cccc(C)c4)ncc3Cl)sc2c1 | active: 37% |
| CNc1nc(Oc2ccc(=O)[nH]n2)nc(N2CCOCC2)n1 | inactive: 77% |
| O=C(CSc1nnc(Cc2ccccc2)n1Cc1ccccc1)NCc1ccco1 | inactive: 63% |
| COc1ccc(-n2cc(C(=O)Nc3ccccc3C#N)c3ccccc3c2=O)cc1 | inactive: 107% |
| COc1cccc(CNC(=O)c2cccc(NC(=O)c3nsc4ccccc34)c2)c1 | inactive: 89% |

| Compound | survival |
| --- | --- |
| COc1cc(Cl)c(NC(=O)CN(C)S(=O)(=O)c2ccc3[nH]c4c(c3c2)CCCC4)c(OC)c1 | inactive: 96% |
| CCCOc1ccc(CNC(=O)Cn2c(=O)oc3ccccc32)cc1 | inactive: 80% |
| CCOc1ccc(OCC)c(NC(=O)CSc2nc3c(c(=O)n(C)c(=O)n3C)n2C(C)C)c1 | inactive: 92% |
| Cc1ccc(CNC(=O)c2cnn(-c3ccc(F)cc3F)c2C2CCN(C(=O)OC(C)(C)C)CC2)cc1 | inactive: 84% |
| CCCOc1ccc(C2C(=O)N(C3CCCCC3)CC(=O)N2CCC2=CCCCC2)cc1OC (stereo unspecified) | inactive: 94% |
| COc1cccc(CNC(=O)CC(c2ccc(C)cc2)N2Cc3ccccc3C2=O)c1 (stereo unspecified) | inactive: 74% |
| CCOC(=O)C(CC)Sc1nnc2[nH]c(=O)cc(C)n12 (stereo unspecified) | active: 52% |
| COc1ccc(NS(=O)(=O)c2ccc3c(c2)n(C)c(=O)c(=O)n3C)cc1Cl | inactive: 82% |
| CC(=O)c1c(C)oc2ccc(N(C(=O)c3ccncc3)S(=O)(=O)c3ccc(F)cc3C)cc12 | inactive: 116% |
| COc1ccc(N(CC(=O)N2CCN(c3ccc(F)cc3)CC2)S(=O)(=O)c2c(C)nn(C)c2C)cc1 | inactive: 80% |
| Cc1cc(C)cc(NC(=O)CN(C)S(=O)(=O)c2ccc3c(c2)CCC(=O)N3)c1 | inactive: 90% |
| Cc1cccc(C(=O)Nc2sc3c(c2C(=O)O)CCCC3)c1 | active: 23% |
| Cc1nn2c(=O)cc(COC(=O)c3ccc(NC(=O)c4ccc(C(C)(C)C)cc4)cc3)nc2s1 | inactive: 80% |
| Cc1csc2nc(-c3cccc(NC(=O)c4ccccc4F)c3)cn12 | inactive: 126% |
| O=C(CSc1n[nH]c(-c2ccccc2)n1)NCCc1ccccc1 | inactive: 78% |
| COc1cccc(CNC(=O)CCS(=O)(=O)c2cc3c4c(c2)CCN4C(=O)CC3)c1 | inactive: 68% |
| CCOC(=O)c1cc2c(=O)n3ccccc3nc2n(CC2CCCO2)c1=NC(=O)c1ccccc1F (stereo unspecified) | active: 44% |
| COc1ccc(CNC(=O)C(C)n2nc(C)c3sc4ccccc4c3c2=O)cc1OC (stereo unspecified) | inactive: 67% |
| Cc1ccccc1NC(=O)CSc1nnc(-c2cccc(Cl)c2)o1 | inactive: 77% |

| Compound | survival |
| --- | --- |
| COc1ccccc1-c1ccnc2c(-c3ccc(Br)cc3)c(C)nn12 | inactive: 94% |
| CCc1ccc(Cn2c(CNS(=O)(=O)c3ccc(Cl)s3)nc3cccnc32)cc1 | inactive: 66% |
| Cc1ccc(S(=O)(=O)c2c(Nc3ccccc3)sc(C(=O)c3ccc4c(c3)OCO4)c2N)cc1 | inactive: 82% |
| CCCC(=Nc1ccccc1O)C1=C(O)CC(CC(C)SCC)CC1=O (stereo unspecified) | inactive: 88% |
| COCCn1nnnc1CN1CCC(NC(=O)Nc2cccc(OC)c2)CC1 | inactive: 71% |
| Cc1nn2c(=O)cc(COC(=O)c3ccccc3NC(=O)C(C)C)nc2s1 | inactive: 80% |
| COc1cccc(-n2cc(C(=O)Oc3ccc(F)cc3)c3ccccc3c2=O)c1 | inactive: 77% |
| COc1cc(C(=O)Nc2cccc(OCc3cc(=O)n4c(C)csc4n3)c2)cc(OC)c1OC | inactive: 98% |
| CCOC(=O)c1ccc(N=c2sc(C(=O)OC)cc(=O)n2C2CC2)cc1 | inactive: 79% |
| COc1ccc(S(=O)(=O)N2CCC(c3nnc(-c4ccccc4C)o3)CC2)c(OC)c1 | inactive: 81% |
| CCN1C(=O)C(O)(C(C)C(=O)c2ccccc2)c2ccccc21 (stereo unspecified) | inactive: 57% |
| Cc1c(Cl)ccc2sc(NC(=O)c3ccc(S(=O)(=O)N4CCCC4)cc3)nc12 | inactive: 75% |
| COc1ccc(-c2nc(SCC(=O)NCC3CCCO3)c(-c3ccc(Cl)cc3)[nH]2)cc1 (stereo unspecified) | inactive: 75% |
| COc1ccc(OC)c(NC(=O)Cn2ccn(-c3ccc(F)cc3)c(=O)c2=O)c1 | inactive: 52% |
| O=C(NCc1ccc2c(c1)CCN2C(=O)c1ccncc1)c1ccccc1Br | inactive: 72% |
| COc1ccc(C)cc1S(=O)(=O)Nc1cccc(-c2ccc(N3CCCC3)nn2)c1 | inactive: 78% |
| O=C(CC(c1cccs1)N1Cc2ccccc2C1=O)Nc1ccccc1 (stereo unspecified) | inactive: 70% |
| CCN1CCN(C(=O)Cn2ncc3c4ccccc4n(Cc4ccccc4F)c3c2=O)CC1 | inactive: 95% |
